Laboratory results taken from article PMC4336329 (PLoS ONE, 2015).
Out of some 310,000 compounds screened, about 14,000 (4.5%) showed an effect of 50% or more. The effect is printed as a negative number. Some of the results follow.

target: human ether-à-go-go-related gene (hERG) potassium channel (human, UniProt Q12809); assay: primary screen, population patch clamp on CHO cells stably expressing hERG
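Also: peak tail current of the secondary pulse compared with the same well before compound.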

Sequence of human ether-à-go-go-related gene (hERG) potassium channel (Q12809 whole entry, looked up): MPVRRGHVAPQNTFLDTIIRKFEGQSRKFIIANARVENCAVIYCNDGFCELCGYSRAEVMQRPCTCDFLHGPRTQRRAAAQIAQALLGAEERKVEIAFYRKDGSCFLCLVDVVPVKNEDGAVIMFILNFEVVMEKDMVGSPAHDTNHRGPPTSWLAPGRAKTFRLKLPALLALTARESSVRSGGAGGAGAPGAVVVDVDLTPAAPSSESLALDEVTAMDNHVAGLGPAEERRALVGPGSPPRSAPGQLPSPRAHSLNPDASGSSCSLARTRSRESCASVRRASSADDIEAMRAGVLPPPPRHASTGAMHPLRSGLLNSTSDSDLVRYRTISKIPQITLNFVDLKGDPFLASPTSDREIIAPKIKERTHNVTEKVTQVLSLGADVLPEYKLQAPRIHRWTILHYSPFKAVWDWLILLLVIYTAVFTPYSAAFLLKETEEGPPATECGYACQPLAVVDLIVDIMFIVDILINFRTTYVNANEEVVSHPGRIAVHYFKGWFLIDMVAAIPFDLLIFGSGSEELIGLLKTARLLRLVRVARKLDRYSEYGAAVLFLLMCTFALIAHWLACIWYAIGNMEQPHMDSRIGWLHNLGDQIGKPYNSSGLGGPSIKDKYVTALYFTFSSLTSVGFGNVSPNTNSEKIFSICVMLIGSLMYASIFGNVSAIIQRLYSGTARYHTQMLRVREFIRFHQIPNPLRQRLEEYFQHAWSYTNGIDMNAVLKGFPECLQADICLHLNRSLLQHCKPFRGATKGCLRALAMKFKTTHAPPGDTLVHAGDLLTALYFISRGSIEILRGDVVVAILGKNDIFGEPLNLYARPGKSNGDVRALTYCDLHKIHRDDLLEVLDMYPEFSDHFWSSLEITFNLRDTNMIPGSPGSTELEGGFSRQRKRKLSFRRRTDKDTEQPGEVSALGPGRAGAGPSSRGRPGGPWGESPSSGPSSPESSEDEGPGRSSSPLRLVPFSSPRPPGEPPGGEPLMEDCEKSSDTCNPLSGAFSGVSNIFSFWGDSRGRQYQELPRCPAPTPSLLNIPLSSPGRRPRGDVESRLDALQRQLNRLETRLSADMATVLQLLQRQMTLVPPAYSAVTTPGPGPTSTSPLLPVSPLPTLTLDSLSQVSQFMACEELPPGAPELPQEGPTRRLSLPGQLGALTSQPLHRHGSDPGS

Structure (SMILES) | hERG current change (%, negative = inhibition) at 10uM
COc1ccc(-c2cn3nc(C)c(C)nc3n2)cc1OC | -2.88%
Cc1cc(Br)ccc1NC(=O)CN(C)C(=O)c1ccc(-n2cncn2)c([N+](=O)[O-])c1 | -64.4%
CCCN1CC(=O)N2C(c3ccccc3)c3[nH]c4ccccc4c3C[C@H]2C1=O (stereo partly drawn) | -17.9%
CC(C)(C)c1ccc(-c2nc3c(C#N)c(-c4ccc5c(c4)OCO5)ccn3n2)cc1 | 1.69%
C/C(=N\OC(=O)NC(C)C)c1sc(-c2ccccc2)nc1C | -3.85%
O=[N+]([O-])c1ccc(Cl)c(S(=O)(=O)Nc2ccc(S(=O)(=O)N3CCOCC3)cc2)c1 | 35.8%
Br.c1ccc(-c2cc3n(c2)CCc2ccccc2-3)cc1 | 4.17%
Cc1ccc(N2CCN(C(=O)c3ccccc3NC(=O)C3CC=CCC3C(=O)O)CC2)cc1 (stereo not drawn) | 1.11%
COc1ccc(N/C=C/c2nc(SC)nnc2C)cc1 | 8.13%
Cc1ccc(CN2C(=O)c3ccccc3Sc3ccc(C(=O)NCCCN4CCOCC4)cc32)cc1 | -2.12%
Cc1cccc(CCNC(=O)C2CCN(S(=O)(=O)c3c(C)noc3C)CC2)c1 | -23.2%
N#C/C(=C\c1ccco1)C(=O)Nc1ccc(S(N)(=O)=O)cc1 | 25.8%
Nc1c(C(=O)c2ccc(Cl)cc2)sc2c1c(=O)[nH]c(=O)n2-c1ccccc1 | -24.2%
O=S(=O)(Nc1cc(S(=O)(=O)N2CCOCC2)ccc1NCC1CCCO1)c1ccccc1F (stereo not drawn) | -6.25%
Cc1nnsc1S(=O)c1ccc(Cl)c(Cl)c1 (stereo not drawn) | -5.36%
COC(=O)c1ccccc1NC(=O)CN1CCC(n2nnc3cc(C(F)(F)F)ccc32)CC1 | -6.14%
CCOc1ccc(C2/C(=C(/O)c3ccc(S(=O)(=O)N4CCCCC4)cc3)C(=O)C(=O)N2CCCOC)cc1OC (stereo not drawn) | 10.6%
Cc1ccc(C)n1-c1ccc(N2CCOCC2)nc1 | -1.52%
CCN(C(=O)COC(=O)c1cc(=O)c2ccccc2o1)c1c(N)n(Cc2ccccc2)c(=O)[nH]c1=O | -11.3%
Cc1ccc(NC(=O)CN(C)C(=O)Cn2ccsc2=N)cc1.Cl | 15.9%
CC(=O)c1nc(N2C(=O)C3CC=C(C)CC3C2=O)sc1C (stereo not drawn) | 4.28%

Structure (SMILES) | hERG current change (%, negative = inhibition) at 10uM
CC1=NN(c2ccc(Cl)cc2)C(=O)/C1=C\c1cccn1-c1ccc(S(N)(=O)=O)cc1 | 0.43%
CCN(CCn1cccn1)C(=O)CCc1nnc(CCCc2ccccc2)o1 | -37%
Cc1nc2sc(C(=O)O)c(N)c2c2c1COC(C)(C)C2 | 9.19%
CC1(C)CC(=O)C(C=NCCCn2ccnc2)=C(O)C1 | -3.97%
O=C(N/N=C/c1cccs1)c1cccc(NC(=O)c2ccc(Cl)cc2)c1 | 7.57%
CS(=O)(=O)c1ccccc1-c1nnc(NC(=O)c2ccco2)o1 | 10.7%
O=C(CSc1nnc(-c2ccco2)o1)c1ccc(F)c(F)c1 | 1.29%
CCC1(CC)C(=O)C2=C3C1[C@H](C(=O)OC)CC(C(=O)OC)C[C@H]3n1c(=O)n(C)c(=O)n1[C@H]2C (stereo partly drawn) | 15.8%
COc1cc(NC(=O)COc2ccccc2Cl)ccc1NC(=O)C(C)C | 6.75%
O=C(N/N=C/c1cccc(F)c1)NC1CCCCC1 | 3.12%
CCc1c(O)cc2n(c1=O)-c1ccccc1C2(C)C | 5.2%
O=C1CCC(C(=O)N2CCCCO2)CN1CCc1ccc(Cl)cc1 (stereo not drawn) | -7.82%
Cc1sc(NC(=S)NC(=O)c2ccco2)c(C(N)=O)c1C | 18.7%
O=C(NNC(=S)NCC1CCCO1)c1cc(Br)ccc1Cl (stereo not drawn) | 3.13%
CCN(CC)S(=O)(=O)c1ccc(S(=O)(=O)N(Cc2ccccn2)Cc2ccco2)cc1 | -30.6%
CC(NC(=O)c1cccnc1Sc1ccccc1)c1ccc(S(N)(=O)=O)cc1 (stereo not drawn) | 15.9%
CC(C)(C)OC(=O)NC(CCNC=C1C(=O)OC(C)(C)OC1=O)C(=O)O (stereo not drawn) | 0.158%
Cc1cc2cc(C#N)c(N3CCOCC3)nc2cc1Cl | 2.01%
C=CCSc1n[nH]c(-c2ccccc2)n1 | 0.34%
CCn1c(SCC(N)=O)nc2c1c(=O)n(C)c(=O)n2C | 17.8%
COc1ccc(N2CCN(C(=O)c3ccc4c(c3)NC(=O)C(CSCc3c(F)cccc3Cl)N4)CC2)cc1 (stereo not drawn) | 20.5%
